Experimental data from PubChem BioAssay AID651820 (National Center for Advancing Translational Sciences (NCATS), 2012).
Hit rate of the full screen: of about 340,000 compounds, about 12,000 (3.5%) were called active. Inconclusive means that the source gave no clear call. Such entries were picked first, then a sample of the others. The call rests on the fitted dose curve; in most records, active means well fitted inhibition curve with a large enough effect; inconclusive means small, poorly fitted or top-dose-only effect, or another doubt; inactive means no such curve, though single readings can be large or run the other way. No potency is given beside an inconclusive call; the fits are too rough.

Assay: qHTS Assay for Inhibitors of Hepatitis C Virus (HCV)
Details: Huh7.5.1 HCVcc-Cre (HCVcc is cell-culture hepatitis C virus) infection, luciferase reporter, 44 h; activity change, negative = inhibition: at 41.8 µM (top of the series) unless noted
Summary of the method: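 Reporter virus HCVcc-Cre (~0.5 moi) infects cells exposed to compound; seeding density 1,000 cells/well with 4 h settling beforehand. Luminescence, 15 sec read, taken 44 h post-infection following a 15 min RT substrate incubation.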
On the % scale 0 is the no-effect control and ±100 the full control effect; potency means the concentration at half of the fitted maximal effect; tags describe the fitted curve by direction and shape.

| Structure (SMILES) | Potency | activity change, negative = inhibition |
| --- | --- | --- |
| COc1cc(/C=N/Nc2snc(SC)c2C#N)ccc1O | inconclusive [inhibitor, single point] |  |
| O=[N+]([O-])c1ccc(N2CCOCC2)cc1N1CCCCC1 |  | inactive: -15.1% |
| COc1cccc(C2=Nn3c(nnc3-c3ccccc3O)SC2)c1 | inconclusive [inhibitor, single point] |  |
| CC(C)(C)OC(=O)NCc1ccc(CNC(=O)c2nc[nH]c2C(=O)NCc2ccc(CNC(=O)OC(C)(C)C)cc2)cc1 | inconclusive [inhibitor, full curve] |  |
| CCC1CCCCN1S(=O)(=O)c1ccc(NC(=O)c2cccs2)cc1 (centres undefined) | inconclusive [inhibitor, single point] |  |
| Oc1c(CN2CCN(c3ccc(F)cc3)CC2)cc(Cl)c2cccnc12 | active: 3.55 µM |  |
| COc1ccc(C)cc1S(=O)(=O)NC(C)c1cnn(-c2ccccn2)c1C (centres undefined) | inconclusive [inhibitor, single point] |  |
| O=C(Nc1ccc2c(c1)N(Cc1ccccc1)C(=O)c1ccccc1S2)NC1CC1 |  | inactive: 9.43% |
| Cc1cccc2sc(N(CCCN(C)C)C(=O)c3ccc4ncsc4c3)nc12 | inconclusive [inhibitor, partial curve] |  |
| O=C(Cc1ccccc1)Nc1ccc2oc(=O)ccc2c1 |  | inactive: -19.7% |
| COc1ccc(NC(=O)CSc2nc(SC)ns2)cc1 |  | inactive: -14.9% |
| COc1cc(OC)nc(Oc2ccc(N)c(C)c2)n1 |  | inactive: 33.4% |
| CCOC(=O)c1sc(N)nc1C(C)(C)C |  | inactive: -9.77% |
| Cc1ccc(-c2cc(C(=O)Nc3cccnc3)c3ccccc3n2)s1 |  | inactive: 6.11% |
| Cc1cccn2c(=O)c3cc(S(=O)(=O)c4ccc(Br)cc4)c(=N)n(C4CCCC4)c3nc12 | inconclusive [inhibitor, single point] |  |
| COCCCN1C(=O)c2[nH]nc(-c3ccccc3O)c2C1c1ccc(Cl)cc1 (centres undefined) | inconclusive [inhibitor, single point] |  |
| COc1ccc(C(=O)Nc2ccc(NC(C)=O)cc2)cc1S(=O)(=O)N(C)Cc1ccccc1 | inconclusive [inhibitor, full curve] |  |
| CCN(CC)S(=O)(=O)c1ccc(N2CCOCC2)c(NC(=O)COc2ccc(Cl)cc2)c1 | active: 10 µM |  |
| CC(C)COC(=O)CCNc1n[nH]c(=O)[nH]c1=O |  | inactive: 2.86% |
| O=C(NCCc1ccccc1)C1CCC(Cn2c(=O)c3ccccc3n(Cc3cccnc3)c2=O)CC1 (centres undefined) | inconclusive [inhibitor, partial curve] |  |
| CCn1c(NC(=O)/C=C/c2ccc(F)cc2)nc2ccccc21 | inconclusive [inhibitor, single point] |  |
| COC(=O)N/N=C/c1ccc([N+](=O)[O-])s1 | inconclusive [inhibitor, single point] |  |
| COc1cccc(C(=O)NCCS(=O)(=O)NC2CCCC2)c1 |  | inactive: 6.62% [at 8.37 µM] |
| Cn1c(N2CCN(C(=O)Nc3ccc(C(F)(F)F)cc3)CC2)nc2ccccc21 | inconclusive [inhibitor, partial curve] |  |
| COc1cc(/C=C2\SC(=S)N(CCC(=O)Nc3cccc(O)c3)C2=O)cc(OC)c1OC | inconclusive [inhibitor, partial curve] |  |

| Structure (SMILES) | Potency | activity change, negative = inhibition |
| --- | --- | --- |
| CC(C)Cn1nc(C(=O)N2CCc3ccccc32)c2ccccc2c1=O | inconclusive [inhibitor, single point] |  |
| Cc1ccc2nc(-c3ccc(NS(=O)(=O)c4ccccc4)cc3)sc2c1 |  | inactive: -28.7% |
| CCN(CC)CCCn1c(C)cc2c(c1=O)C(c1ccccc1)C(C#N)=C(N)O2 (centres undefined) | inconclusive [inhibitor, single point] |  |
| COc1ccc(/C=C2\SC(=S)N(CCC(=O)N(CCO)Cc3ccccc3)C2=O)cc1OC | inconclusive [inhibitor, single point] |  |
| COc1cc(/C=C2/CCC/C(=C\c3cc(O)c(OC)c(Cl)c3)C2=O)cc(Cl)c1O | active: 11.2 µM |  |
| O=C(CSc1nc2nc(-c3cccs3)cc(C(F)(F)F)c2c(=O)[nH]1)C(F)(F)F |  | inactive: 2.94% |
| Cc1cc2c(c(Sc3ccccc3)n1)C(=O)OC2 | inconclusive [inhibitor, single point] |  |
| O=C(/C=C/c1cccs1)c1cc(Cl)ccc1O |  | inactive: -16.6% |
| Cc1cc(/C=N/NC(=O)c2cccc(F)c2)c(C)n1-c1ccccc1 | inconclusive [inhibitor, partial curve] |  |
| OCC1C2c3ccccc3C(c3ccccc32)C1CO (centres undefined) |  | inactive: 12.7% |
| CN(C)CCCC1(O)c2ccccc2C=Cc2ccccc21 |  | inactive: -5.9% |
| COc1ccc(NC(=O)Cc2coc3cc(C)ccc23)cn1 |  | inactive: -5.04% |
| CCC(=O)N1CCc2cc(S(=O)(=O)N3CCCCC3CC)ccc21 (centres undefined) | inconclusive [inhibitor, single point] |  |
| COC(=O)[C@@]1(Cc2ccc(F)cc2)[C@H]2c3cc(C(=O)N4CCCC4)n(Cc4ccc(C(F)(F)F)nc4)c3C[C@H]2CN1C(=O)c1ccccc1 | inconclusive [inhibitor, single point] |  |
| CCS(=O)(=O)N1Cc2ccccc2CC1C(=O)N(C)Cc1ccc(OC)cc1OC (centres undefined) | inconclusive [inhibitor, single point] |  |
| COc1cccc(-c2nc(N3CCC(C)CC3)c3ccccc3n2)c1O | inconclusive [inhibitor, full curve] |  |
| Cc1ccc(Cc2cnc(NC(=O)c3cccs3)s2)cc1 | inconclusive [inhibitor, single point] |  |
| CCCCN(C(=O)c1ccc(S(=O)(=O)N(C)C)cc1)c1nc2ccccc2s1 |  | inactive: 29.2% |
| O=C1c2ccccc2NC(c2ccc(Br)s2)N1O (centres undefined) | inconclusive [inhibitor, single point] |  |
| CCCSc1nsc(NC(=O)C(c2ccccc2)c2ccccc2)n1 | inconclusive [inhibitor, single point] |  |
| COc1ccc(-c2c3c(cc(C)[n+]2[O-])oc2ccc(OC)cc23)cc1 |  | inactive: -10.6% |
| CCOc1nc2cnccc2n(CC(=O)Nc2ccc(C)c(C)c2)c1=O | inconclusive [inhibitor, single point] |  |
| Cc1nn(CC(=O)NCCC2=CCCCC2)c(C)c1[N+](=O)[O-] | inconclusive [inhibitor, partial curve, poor fit] |  |
| Cn1c(C(=O)N2CCOCC2)cc2c(=O)n3ccccc3nc21 |  | inactive: 5.26% |
| COc1cc(OC)c(N(C)S(=O)(=O)c2cccc(C(=O)OCC(=O)N(C)Cc3ccccc3)c2)cc1Cl | active: 11.2 µM |  |

| Structure (SMILES) | Potency | activity change, negative = inhibition |
| --- | --- | --- |
| COc1ccc(OC)c(-c2csc(NC(=O)CN3C(=O)NC4(CCCC4)C3=O)n2)c1 | inconclusive [inhibitor, single point] |  |
| COc1cccc(/C=N/Nc2nc(N3CCCC3)nc(N3CCCC3)n2)c1O |  | inactive: -29.3% |
| C=CCNc1sc(C(=O)c2ccc(C)cc2)c(N)c1C#N | inconclusive [inhibitor, partial curve, poor fit] |  |
| Cc1ccc(NC(=O)c2noc3c2CCCCC3)cc1C |  | inactive: -7.24% |
| Cc1sc2nc(C(C)C)nc(SCC(=O)NCc3ccco3)c2c1C | inconclusive [inhibitor, partial curve, poor fit] |  |
| CC(=O)c1sc(NCCOc2ccc(C)cc2)nc1C | inconclusive [inhibitor, partial curve] |  |
| O=C(CSc1nc(-c2ccc(F)cc2)cs1)N1CCOCC1 |  | inactive: 3.12% |
| Cc1ccc(C(C(=O)NC2CCCC2)N(Cc2ccc3c(c2)OCO3)C(=O)Cc2cccs2)cc1 (centres undefined) | inconclusive [inhibitor, partial curve] |  |
| CCN(C(=O)c1cc2c(s1)-c1ccccc1S(=O)(=O)C2)c1cc(OC)ccc1OC | active: 10 µM |  |
| COc1cc(-c2ccc(NC(=O)CN3CCC(C)CC3)c(OC)c2)ccc1NC(=O)CN1CCC(C)CC1 | inconclusive [inhibitor, partial curve] |  |
| COc1ccc(Cl)cc1NC(=O)CN(C)CC(=O)Nc1ccc(Br)cc1 | inconclusive [inhibitor, single point] |  |
| Cc1ccc(C)c(N2CCN(S(=O)(=O)c3ccc4c(c3)NC(=O)CS4)CC2)c1 | inconclusive [inhibitor, single point] |  |
| Cc1ccn2cc(-c3ccc4c(c3)NC(=O)CO4)nc2c1 |  | inactive: 1.37% |
| Cc1ccc2sc(C)[n+](CCO)c2c1 |  | inactive: 19.3% |
| Cc1cc(C(=O)CSc2nncs2)c(C)n1Cc1ccco1 | inconclusive [inhibitor, single point] |  |
| C=CCNC(=S)Nc1nc2c(cc1C(=O)OCC)COC(C)(C)C2 |  | inactive: -16.3% |
| Cn1nc(-c2ccccc2)c2cc([N+](=O)[O-])ccc21 | active: 12.6 µM |  |
| Cc1nc2c(-c3ccc(F)cc3)cnn2c(N)c1-c1ccc(F)cc1 | inconclusive [inhibitor, partial curve] |  |
| O=C(CC1NCCNC1=O)Nc1ccc2c(c1)OCO2 (centres undefined) |  | inactive: 25.7% |
| O=C(CNc1cccc2ccccc12)N/N=C/c1ccc[nH]1 | active: 1 µM |  |
| Cc1nn(C(C)C(=O)NCCCc2ccccc2)c(=O)c2nn(-c3ccccc3)c(C)c12 (centres undefined) | inconclusive [inhibitor, partial curve] |  |
| CCS(=O)(=O)c1ncc(Cl)c(C(=O)Nc2ccc(S(=O)(=O)N3CCCC(C)C3)cc2)n1 (centres undefined) | active: 12.6 µM |  |
| CC1(C)SC(=S)N(/N=C/c2cccnc2)C1N(O)C(=O)Nc1ccccc1 (centres undefined) |  | inactive: -10% |
| Cc1cc(NC2CCCC2)n2nc(C)c(-c3ccccc3)c2n1 | inconclusive [inhibitor, partial curve] |  |
